Drawing on PMC12820563, “FoxP3 forms a head-to-head dimer in vivo and stabilizes its multimerization on adjacent microsatellites”, this text covers binding signal for 31 sequences.

Some of the results follow.

This experiment deals with T1, MBP-FoxP1dN (Mus musculus, UniProt P58462 326-579).
T1 sequence: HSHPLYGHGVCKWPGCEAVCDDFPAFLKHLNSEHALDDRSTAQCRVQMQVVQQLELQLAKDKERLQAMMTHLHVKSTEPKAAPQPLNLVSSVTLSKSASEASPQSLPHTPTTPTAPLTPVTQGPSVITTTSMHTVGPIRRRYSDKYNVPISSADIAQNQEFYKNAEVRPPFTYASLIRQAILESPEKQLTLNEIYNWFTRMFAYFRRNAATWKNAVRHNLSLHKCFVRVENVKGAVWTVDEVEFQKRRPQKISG
Briefly: PD-seq (MBP pull-down with sequencing); 20 mM Tris-HCl pH 7.5, 100 mM NaCl, 1.5 mM MgCl2, 0.4 uM protein, 0.1 uM dsDNA library, 30 min, room temperature, amylose pull-down; high values mean tight binding. Particulars: protein: recombinant; tags: His6-MBP; chain copies: 2; dsDNA, one strand shown. In outline: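 Binding is given as reads-per-million enrichment, pull-down over input, with replicates pooled. The bait was an N-terminus-lacking mouse FoxP3 or FoxP1 fragment with a His6-MBP tag, expressed in E. coli and used at 0.4 µM with 0.1 µM Klenow-filled degenerate double-stranded DNA library for 30 min at room temperature in Tris pH 7.5 buffer with NaCl and MgCl2. Amylose resin pull-down with three washes was followed by proteinase K release, PCR barcoding and Illumina sequencing.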
On to “GATGATTGTTCTCCCAGCTGATGAATTACAAAGTTCGAGTAAACAAATTTTCCTAATCTTTCTGTTCAAGCGCCATCTAC”, for which the binding signal was 1.37 RPM ratio (pull-down/input).

Consider “GATGATTGTTCTCCCAGCTGATGAATTACAGGATTCGAGTAAACAAATTTTCCTAATCTTTCTGTTCAAGCGCCATCTAC”, for which the binding signal is 1.06 RPM ratio (pull-down/input).

With “GATGATTGTTCTCCCAGCTGATGAATTCAGCTGGTCGAGTAAACAAATTTTCCTAATCTTTCTGTTCAAGCGCCATCTAC”, the binding signal is 0.947 RPM ratio (pull-down/input).

“GATGATTGTTCTCCCAGCTGATGAATTGTGGAGCTCGAGTAAACAAATTTTCCTAATCTTTCTGTTCAAGCGCCATCTAC”: the binding signal was 0.84 RPM ratio (pull-down/input).

For the sequence “GATGATTGTTCTCCCAGCTGATGAATTTCGCTACTCGAGTAAACAAATTTTCCTAATCTTTCTGTTCAAGCGCCATCTAC”, the binding signal is 0.848 RPM ratio (pull-down/input).

On to “GATGATTGTTCTCCCAGCTGATGAATTAACCGCATCGAGTAAACAAATTTTCCTAATCTTTCTGTTCAAGCGCCATCTAC”, for which the binding signal is 1.12 RPM ratio (pull-down/input).

Take “GATGATTGTTCTCCCAGCTGATGAATTAGCGACTTCGAGTAAACAAATTTTCCTAATCTTTCTGTTCAAGCGCCATCTAC”: the binding signal was 0.879 RPM ratio (pull-down/input).

Turning to “GATGATTGTTCTCCCAGCTGATGAATTTTAGCAGTCGAGTAAACAAATTTTCCTAATCTTTCTGTTCAAGCGCCATCTAC”, the binding signal was 0.811 RPM ratio (pull-down/input).

For the sequence “GATGATTGTTCTCCCAGCTGATGAATTGTTAAGATCGAGTAAACAAATTTTCCTAATCTTTCTGTTCAAGCGCCATCTAC”, the binding signal is 1.11 RPM ratio (pull-down/input).

With “GATGATTGTTCTCCCAGCTGATGAATTTCCGAAGTCGAGTAAACAAATTTTCCTAATCTTTCTGTTCAAGCGCCATCTAC”, the binding signal was 0.787 RPM ratio (pull-down/input).

For the sequence “GATGATTGTTCTCCCAGCTGATGAATTTAGGTTCTCGAGTAAACAAATTTTCCTAATCTTTCTGTTCAAGCGCCATCTAC”, the binding signal was 0.901 RPM ratio (pull-down/input).

In the case of “GATGATTGTTCTCCCAGCTGATGAATTCCTGACATCGAGTAAACAAATTTTCCTAATCTTTCTGTTCAAGCGCCATCTAC”, the binding signal was 0.897 RPM ratio (pull-down/input).

As for “GATGATTGTTCTCCCAGCTGATGAATTGCCTATTTCGAGTAAACAAATTTTCCTAATCTTTCTGTTCAAGCGCCATCTAC”, the binding signal is 1.12 RPM ratio (pull-down/input).

Turning to “GATGATTGTTCTCCCAGCTGATGAATTCTCCGCTTCGAGTAAACAAATTTTCCTAATCTTTCTGTTCAAGCGCCATCTAC”, the binding signal was 0.94 RPM ratio (pull-down/input).

On to “GATGATTGTTCTCCCAGCTGATGAATTCCTCGGATCGAGTAAACAAATTTTCCTAATCTTTCTGTTCAAGCGCCATCTAC”, for which the binding signal is 0.795 RPM ratio (pull-down/input).

Take “GATGATTGTTCTCCCAGCTGATGAATTCAAAGCCTCGAGTAAACAAATTTTCCTAATCTTTCTGTTCAAGCGCCATCTAC”: the binding signal is 0.795 RPM ratio (pull-down/input).

Regarding “GATGATTGTTCTCCCAGCTGATGAATTGTCCCTTTCGAGTAAACAAATTTTCCTAATCTTTCTGTTCAAGCGCCATCTAC”, the binding signal is 1.01 RPM ratio (pull-down/input).

In the case of “GATGATTGTTCTCCCAGCTGATGAATTAGCAATATCGAGTAAACAAATTTTCCTAATCTTTCTGTTCAAGCGCCATCTAC”, the binding signal is 1.19 RPM ratio (pull-down/input).

As to “GATGATTGTTCTCCCAGCTGATGAATTTATAGTGTCGAGTAAACAAATTTTCCTAATCTTTCTGTTCAAGCGCCATCTAC”, the binding signal is 1.2 RPM ratio (pull-down/input).

As to “GATGATTGTTCTCCCAGCTGATGAATTTCATTACTCGAGTAAACAAATTTTCCTAATCTTTCTGTTCAAGCGCCATCTAC”, the binding signal was 0.95 RPM ratio (pull-down/input).

Take “GATGATTGTTCTCCCAGCTGATGAATTGCTCACGTCGAGTAAACAAATTTTCCTAATCTTTCTGTTCAAGCGCCATCTAC”: the binding signal is 0.992 RPM ratio (pull-down/input).

“GATGATTGTTCTCCCAGCTGATGAATTCGTCCGATCGAGTAAACAAATTTTCCTAATCTTTCTGTTCAAGCGCCATCTAC”: the binding signal is 0.822 RPM ratio (pull-down/input).

In the case of “GATGATTGTTCTCCCAGCTGATGAATTAATTACCTCGAGTAAACAAATTTTCCTAATCTTTCTGTTCAAGCGCCATCTAC”, the binding signal is 1.1 RPM ratio (pull-down/input).

For “GATGATTGTTCTCCCAGCTGATGAATTACATGAGTCGAGTAAACAAATTTTCCTAATCTTTCTGTTCAAGCGCCATCTAC”, the binding signal was 1.15 RPM ratio (pull-down/input).

On to “GATGATTGTTCTCCCAGCTGATGAATTTTTTGGTTCGAGTAAACAAATTTTCCTAATCTTTCTGTTCAAGCGCCATCTAC”, for which the binding signal was 1.01 RPM ratio (pull-down/input).

Turning to “GATGATTGTTCTCCCAGCTGATGAATTCTAATCATCGAGTAAACAAATTTTCCTAATCTTTCTGTTCAAGCGCCATCTAC”, the binding signal was 1.1 RPM ratio (pull-down/input).

As to “GATGATTGTTCTCCCAGCTGATGAATTTTAGACTTCGAGTAAACAAATTTTCCTAATCTTTCTGTTCAAGCGCCATCTAC”, the binding signal is 0.835 RPM ratio (pull-down/input).

Regarding “GATGATTGTTCTCCCAGCTGATGAATTTTCTCCTTCGAGTAAACAAATTTTCCTAATCTTTCTGTTCAAGCGCCATCTAC”, the binding signal was 0.846 RPM ratio (pull-down/input).

Regarding “GATGATTGTTCTCCCAGCTGATGAATTCTCCCTCTCGAGTAAACAAATTTTCCTAATCTTTCTGTTCAAGCGCCATCTAC”, the binding signal was 0.869 RPM ratio (pull-down/input).

Turning to “GATGATTGTTCTCCCAGCTGATGAATTTTAAGAGTCGAGTAAACAAATTTTCCTAATCTTTCTGTTCAAGCGCCATCTAC”, the binding signal is 0.835 RPM ratio (pull-down/input).

In the case of “GATGATTGTTCTCCCAGCTGATGAATTGGCGTCCTCGAGTAAACAAATTTTCCTAATCTTTCTGTTCAAGCGCCATCTAC”, the binding signal was 0.871 RPM ratio (pull-down/input).
